Test results from PubChem BioAssay AID493014 (National Center for Advancing Translational Sciences (NCATS), 2011).
Out of some 340,000 compounds screened, about 170 (0.05%) were called active. Inconclusive results (about 26%) are left out. The call rests on the fitted dose curve; in most records, active means well fitted inhibition curve with a large enough effect in the signal ratio, with a control signal flat (not every such curve was filed as active); inconclusive means small, poorly fitted or top-dose-only effect, or effect the other way, or a change in a side signal; inactive means flat fitted curve, though single readings scatter; the % refers to the signal ratio. Only a part is listed here, and it is no random draw.

assay: qHTS Assay to Find Inhibitors of Chronic Active B-Cell Receptor Signaling; conditions: ABC-DLBCL IkBa-CBG/CBR reporter, luminescence ratio (green luciferase fused to IkBa over red control in TMD8 lymphoma cells), 4 h; series mostly up to 46.1 µM; activity change, negative = inhibition: at the top concentration;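 on activity change, negative = inhibition: plate controls were basal doxycycline-induced cells for no effect and cells given 10 µM MG132 for full effect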
In short: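 Cell line TMD8 (human ABC DLBCL), stably expressing tet-inducible CBG68-IkBa fusion and CBR; IMDM/0.5% FBS; cpd up to 46 uM; dox induction, 4 h, 37C/5% CO2; dual luminescence; green/red ratio; MG132 control.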
Potency means the concentration at half of the fitted maximal effect.

Activity change, negative = inhibition, inactive:
CC1(C)OC1COc1c2ccoc2cc2oc(=O)ccc12 (stereo not given) 0.385%, CCOC(=O)[C@@H]1[C@H]2COc3ccc(Br)cc3[C@@H]2N2C(=O)N(c3ccc(Br)cc3)C(=O)[C@@]12C 0.286%, C/C=C/C(=O)N(CC)c1ccccc1C 0.909%, C=CC[C@H](CC(=O)NCCO)C(=O)N[C@@H](COC(=O)[C@H](CC=C)CC(=O)OC(C)(C)C)Cc1c[nH]c2ccccc12 0.786%, CC(C)(C)NC(=O)/C(=C/c1ccccc1F)NC(=O)c1ccc([N+](=O)[O-])cc1 10.9%, Cc1ccc(S(=O)(=O)N2C[C@@H]3[C@H]4CC[C@H](C4)[C@@H]3[C@@H](C)[C@H]2c2ccn(Cc3ccccc3)c2)cc1 3.52%, C=CC[C@@H](CC(=O)N(CCO)Cc1ccccc1)C(=O)NC[C@@H](OC(=O)[C@@H](CC=C)CC(=O)OC(C)(C)C)c1ccccc1 1.07%, C[C@@H](NC(=O)c1ncn(C)c1C(=O)N[C@H](C)c1ccccc1)c1ccccc1 0.532%, C=CCC[C@H](Cc1ccc(F)cc1)C(=O)OC[C@@H](Cc1c[nH]c2ccccc12)NC(=O)[C@@H](CC=C)CC(=O)N[C@@H](CO)Cc1ccccc1 3.83%, C=CC[C@H](CC(=O)NCCO)C(=O)N[C@@H](C)COC(=O)[C@H](CC=C)CC(=O)OC(C)(C)C 3.81%, Cc1ccc(C)c(OCCn2cc(/C=C(/C#N)C(=O)NCC3CCCO3)c3ccccc32)c1 (stereo not given) 3.28%, C[C@H](NC(=O)c1ccccc1Cl)C(=O)NCc1cccs1 -2.44%, CCCCNC(=O)CSc1nc2cc3c(cc2c(=O)n1CCCC(=O)NCCc1ccc(OC)c(OC)c1)OCO3 -13.7%, C#Cc1ccc([C@@H]2C=C(C(=O)NC3CC3)O[C@H](OCC)[C@H]2CCCO)cc1 -3.56%, Cc1cccc(/C=C/c2onc(C)c2S(=O)(=O)N2CCC(C(=O)N3CCCCC3)CC2)c1 -3.95%, C=CC[C@@H](CC(=O)N[C@@H](CO)Cc1ccccc1)C(=O)N[C@H](COC(=O)[C@H](CC=C)CC(=O)OC(C)(C)C)Cc1c[nH]c2ccccc12 -8.44%, C[C@]12C(=O)N(c3ccc(Br)cc3)C(=O)N1[C@H]1c3ccccc3OC[C@@H]1[C@H]2c1ccccc1 2.94%, CCCCNC(=O)CSc1nc2n[nH]c(C)c2c(=N)n1-c1cccc(Cl)c1C -15.5%, NC(=O)C1CCN(c2nc(-c3ccccc3F)cs2)CC1 0.0726%, COc1ccc(S(=O)(=O)N(C)C[C@H]2Oc3ccc(NC(=O)Nc4c(C)noc4C)cc3C(=O)N([C@H](C)CO)C[C@@H]2C)cc1 -0.57%, COc1cc(/C=C2/SC(=S)N(CC(=O)Nc3cccnc3)C2=O)cc(OC)c1OC 6.55%, O=C(C1=C[C@@H](C2CCCCC2)C[C@@H](OCCCCO)O1)N1CCOCC1 -1.88%, O=C1N[C@@H](c2ccccc2)COC(=O)[C@@H](Cc2ccc(F)cc2)CC/C=C/C[C@H]1CC(=O)N(CCO)Cc1ccccc1 1.13%, O=C1N[C@@H](Cc2ccccc2)COC(=O)[C@H](Cc2ccc(F)cc2)CC/C=C/C[C@H]1CC(=O)N(CCO)Cc1ccccc1 1.58%, O=C(COc1ccc2c(-c3ccccc3)cc(=O)oc2c1)NC(Cc1c[nH]c2ccccc12)C(=O)O (stereo not given) 0.673%, [2H]C(CCOS(N)(=O)=O)c1ccccc1 (stereo not given) 24.1%, Cc1csc(CNc2ncnc3ccc(-c4ccccc4Cl)cc23)c1 -4.5%, C[C@H]1COC(=O)[C@H](CC(=O)OC(C)(C)C)C/C=C\C[C@@H](CC(=O)NCCO)C(=O)N1 1.98%, OCC[C@@H]1C[C@H](O)[C@@H](O)[C@]2(OCc3ccccc32)O1 -9.56%, C[C@@H]1CN([C@@H](C)CO)C(=O)c2cccc(NC(=O)Nc3ccc4c(c3)OCO4)c2O[C@H]1CN(C)S(=O)(=O)c1cn(C)cn1 -0.29%, COc1ccc([C@@]2(C(C)C)ON(c3ccccc3C(F)(F)F)C2=O)cc1 -4.84%, C=CC[C@@H](CC(=O)OC(C)(C)C)C(=O)OC[C@H]1CCCN1C(=O)[C@@H](CC=C)CC(=O)NCCO 2.38%, CC(C)[C@H](NC(=O)N1CCn2c1nc1ccccc12)C(=O)N[C@@H](Cc1ccccc1)C(=O)O -1.53%, O=c1c2ccccc2ncn1-c1ccc(Cl)cc1 -21.5%, COC(=O)[C@@H]1[C@H]2C[C@H]3c4[nH]c5ccccc5c4CCN3C[C@@H]2CC[C@@H]1O -16.3%, CC(/C=N/NC(=O)c1ccncc1)=C\c1ccco1 -26.3%, C[n+]1cc[nH]c1SCC(=O)c1ccc(Cl)cc1 -4.44%, COC(=O)Nc1ccc2c(c1)N(C(=O)CCN1CCN3CCCC3C1)c1ccccc1CC2 (stereo not given) -1.68%, COc1ccc2cc([C@@H](C)C(=O)O)ccc2c1 -22.2%, O=C(C1=C[C@H](c2ccc(C(F)(F)F)cc2)C[C@H](OCc2ccc(CO)cc2)O1)N1CCN(Cc2ccccc2)CC1 7.7%, CC1CNCCN1S(=O)(=O)c1cccc2cnccc12 (stereo not given) -6.67%, Cc1cc2c(s1)c1cnn(-c3ccccc3)c(=O)c1n2C 0.123%, CCOC(=O)[C@@H]1[C@H]2COc3ccc(Br)cc3[C@@H]2N2C(=O)N(c3ccc(Cl)cc3)C(=O)[C@@]12C 0.68%, O=C(Nc1ccccc1)C1=C[C@H](c2ccc(C(F)(F)F)cc2)C[C@H](OCc2ccc(CO)cc2)O1 -1.87%, Nc1ncnc2c1ncn2C1O[C@H](CO)[C@@H](O)[C@@H]1O (stereo not given in full) -1.78%, COc1ccc(NC(=O)N(C)C[C@H]2Oc3ccc(NC(=O)CCN4CCOCC4)cc3C(=O)N([C@H](C)CO)C[C@@H]2C)cc1 0.254%, CN(C)S(=O)(=O)Nc1cccc(Br)c1 2.06%, O=S1(=O)c2ccc(Br)cc2N2CCC[C@H]2CN1Cc1ccccc1 -2.1%, O=C1C2C3c4ccccc4C(c4ccccc43)[C@@H]2c2nc3ccccc3n21 (stereo not given in full) 3.83%, CCN1C(=O)[C@@H]2[C@@H](c3ccc(-c4ccc(F)cc4)c(OC)c3)N3CCCC[C@@]3(C(=O)OC)[C@@H]2C1=O -0.673%, O=C(C1=C[C@H](c2coc3ccccc3c2=O)C[C@H](OCc2ccc(CO)cc2)O1)N1CCN(Cc2ccc3c(c2)OCO3)CC1 -2.42%, C=CCC[C@H](Cc1ccc(F)cc1)C(=O)OC[C@@H](C)NC(=O)[C@@H](CC=C)CC(=O)N[C@@H](CO)Cc1ccccc1 0.112%, C[C@]12CC[C@@H]3c4ccc(O)cc4CC[C@H]3[C@@H]1C[C@@H](O)[C@@H]2O -2.86%, O=S(=O)(c1cccc(C(F)(F)F)c1)N(CCCN1CCOCC1)Cc1cccs1 1.11%, CCOC(=O)[C@@H]1[C@H]2COc3ccccc3[C@@H]2N2C(=O)N(c3cccc(Cl)c3)C(=O)[C@@]12C 14.4%, CC(C)(O)[C@H](O)COc1c2ccoc2cc2oc(=O)ccc12 1.61%, CCN1C(=NCC(C)C)N[C@@H](c2cccc(C(F)(F)F)c2)C(C(=O)OC)=C1C -23.2%, Cc1ccc(S(=O)(=O)N2CCC[C@H]2C(=O)OCC(=O)Nc2ccc3c(c2)OCO3)cc1 -3.02%, Cc1ccc(C)c(CN2CCCN(Cc3cc(C)ccc3C)S2(=O)=O)c1 -12.4%, O=C(CCSCc1ccccc1Cl)N1CCN(c2cccc(Cl)c2)CC1 10.9%, O=C(Cc1cc(=O)[nH][nH]1)N/N=C/C=C/c1ccccc1 11.2%, COc1ccc(S(=O)(=O)N(C)C[C@H]2Oc3ccc(NS(=O)(=O)c4cn(C)cn4)cc3C(=O)N([C@H](C)CO)C[C@@H]2C)cc1 -5.73%, OCC[C@H]1C[C@@H](O)[C@H](O)[C@@]2(CCc3ccccc3CO2)O1 -0.64%, COc1cccc(CNc2ncnc3ccc(-c4c(C)noc4C)cc23)c1 -11.9%, C#CCNC(=O)C1=C[C@H](c2ccc(C(F)(F)F)cc2)C[C@H](OCCCCO)O1 8.55%, CC(C)n1cc(/C=C2/NC(=O)N(c3cccc(Cl)c3)C2=O)c2ccccc21 11.7%, COC(=O)C1=C(C)N(Cc2ccccc2)C(=NCc2cc(OC)c(OC)c(OC)c2)N[C@H]1c1ccccc1 -3.6%, COc1ccc2nc(C)cc(SCC(=O)O)c2c1 0.201%, CC1CCN(C(=O)c2[nH]cnc2C(=O)N[C@H](C)c2ccccc2)CC1 -0.483%, C#Cc1ccc([C@H]2C=C(C(=O)NCc3ccccc3)O[C@@H](OCC)[C@@H]2CCCO)cc1 -0.659%, O=C(c1ccccc1)[C@H]1CC=CC[C@H]1C(=O)O -5.12%, N#C/C(=C\N1CCOCC1)c1ccccc1 0.0428%, CC(=O)/C(=C\N(C)C)Sc1ccc(C)cc1 5.96%, O=C(CCCN1C(=O)S/C(=C/C=C/c2ccccc2)C1=O)Nc1ccc(C(=O)O)cc1 -4.51%, CC(C)(C)OC(=O)C[C@@H]1C/C=C\C[C@@H](CC(=O)N(CCO)Cc2ccccc2)C(=O)NC[C@@H](c2ccccc2)OC1=O -1.99%

Potency, inactive:
CN(C)CCC(c1ccc(Cl)cc1)c1ccccn1 (stereo not given)

Potency, active:
COc1ccccc1N1CCN(c2ccnc3cc(Cl)ccc23)CC1 20 µM, COc1ccc(OC)c(Nc2c3c(nc4ccccc24)CCC3)c1 15.8 µM, CS(=O)(=O)c1ccc(S(=O)CC(=O)Oc2ccc(Cl)cc2)c([N+](=O)[O-])c1 (stereo not given) 17.8 µM, COc1ccc(-c2noc(CSc3nc(N)c(-c4ccccc4)c(=O)[nH]3)n2)cc1OC 20.6 µM, CCCC(=O)OCCNc1cc(Sc2nccn2C)c2nonc2c1[N+](=O)[O-] 2.91 µM, Cc1ccc(N/N=C(\Cc2nc3ccccc3[nH]2)c2ccccc2)cc1 23.1 µM, O=C(Cc1ccc(-n2c(=O)c3ccccc3n(Cc3ccccc3Cl)c2=O)cc1)NCC1CCCO1 (stereo not given) 2.82 µM, COc1cc(OC)cc(C(=O)N/N=C/c2ccc(OC)c(COc3ccc(F)cc3)c2)c1 10 µM, CCOc1ccc2nc(NS(=O)(=O)Cc3ccccc3)sc2c1 7.31 µM
